Reference: patent publication US20230278972A1, “SUBSTITUTED HALOALKYL SULFONANILIDE HERBICIDES” (FMC Corporation, priority 2020, published 2023)

Key:
Details in all cases: Flood, 250 g ai/ha; visual rating after 13 to 15 days; scale of 0 to 100 where 0 is no effect and 100 is complete control
rice (Oryza sativa) = experiment: Test B flooded paddy test, rice
[1] = test system: ducksalad (Heteranthera limosa); experiment: Test B flooded paddy test, ducksalad
[2] = test system: barnyardgrass (Echinochloa crus-galli); experiment: Test B flooded paddy test, barnyardgrass
[3] = test system: sedge, umbrella (small-flower umbrella sedge, Cyperus difformis); experiment: Test B flooded paddy test, sedge, umbrella

Question: How did the “Plant response rating, Rice” value (rice (Oryza sativa)) turn out when `Cc1cc(C)c(C(=O)N2CCC(C#N)CC2)cc1NS(=O)(=O)C(F)(F)F` [Compound 11] was run?
Answer: 0

Question: What about the “Plant response rating, Ducksalad” value [1] of the same molecule?
Answer: 0

Question: And the “Plant response rating, Barnyardgrass” value [2]?
Answer: 0

Question: And the “Plant response rating, Sedge, Umbrella” value [3]?
Answer: 0

Question: Which “Plant response rating, Rice” value (rice (Oryza sativa)) does the source give for `Cc1cc(C)c(C(=O)N2CCSCC2)cc1NS(=O)(=O)C(F)(F)F` [Compound 12] here?
Answer: 0

Question: What about the “Plant response rating, Ducksalad” value [1] of the same molecule?
Answer: 0

Question: What about the “Plant response rating, Barnyardgrass” value [2] of the same molecule?
Answer: 0

Question: And the “Plant response rating, Sedge, Umbrella” value [3]?
Answer: 0

Question: Which “Plant response rating, Rice” value (rice (Oryza sativa)) does the source give for `Cc1cc(C2CC2)c(NS(=O)(=O)C(F)(F)F)cc1C(=O)N1CCOCC1` [Compound 13] here?
Answer: 0

Question: What about the “Plant response rating, Ducksalad” value [1] of the same molecule?
Answer: 0

Question: And the “Plant response rating, Barnyardgrass” value [2]?
Answer: 0

Question: And the “Plant response rating, Sedge, Umbrella” value [3]?
Answer: 35

Question: `Cc1cc(Br)c(NS(=O)(=O)C(F)(F)F)cc1C(=O)N1CCOCC1` [Compound 14] was tested. Which “Plant response rating, Rice” value (rice (Oryza sativa)) did it give?
Answer: 10

Question: What about the “Plant response rating, Ducksalad” value [1] of the same molecule?
Answer: 20

Question: And the “Plant response rating, Barnyardgrass” value [2]?
Answer: 0

Question: What about the “Plant response rating, Sedge, Umbrella” value [3] of the same molecule?
Answer: 90

Question: `O=C(c1ccc(Cl)c(NS(=O)(=O)C(F)(F)F)c1)N1CCOCC1` [Compound 15] was tested. Which “Plant response rating, Rice” value (rice (Oryza sativa)) did it give?
Answer: 0

Question: And the “Plant response rating, Ducksalad” value [1]?
Answer: 0

Question: And the “Plant response rating, Barnyardgrass” value [2]?
Answer: 0

Question: What about the “Plant response rating, Sedge, Umbrella” value [3] of the same molecule?
Answer: 0

Question: For `Cc1cc(Cl)c(NS(=O)(=O)C(F)(F)F)cc1C(=O)N1CCC(C#N)CC1` [Compound 17], which “Plant response rating, Rice” value (rice (Oryza sativa)) is on record?
Answer: 0

Question: And the “Plant response rating, Ducksalad” value [1]?
Answer: 70

Question: What about the “Plant response rating, Barnyardgrass” value [2] of the same molecule?
Answer: 0

Question: And the “Plant response rating, Sedge, Umbrella” value [3]?
Answer: 95

Question: For `COC1CCN(C(=O)c2cc(NS(=O)(=O)C(F)(F)F)c(C)cc2C)CC1` [Compound 19], which “Plant response rating, Rice” value (rice (Oryza sativa)) is on record?
Answer: 10

Question: What about the “Plant response rating, Ducksalad” value [1] of the same molecule?
Answer: 85

Question: And the “Plant response rating, Barnyardgrass” value [2]?
Answer: 25

Question: And the “Plant response rating, Sedge, Umbrella” value [3]?
Answer: 95

Question: Which results are given for `Cc1cc(Cl)c(NS(=O)(=O)C(F)(F)F)cc1C(=O)N1CC(C)OC(C)C1` (stereo not shown) [Compound 20]?
Answer: Plant response rating, Rice (rice (Oryza sativa)): 0; Plant response rating, Ducksalad [1]: 70; Plant response rating, Barnyardgrass [2]: 20; Plant response rating, Sedge, Umbrella [3]: 90

Question: Which results are given for `CCN(CC)C(=O)c1cc(NS(=O)(=O)C(F)(F)F)c(Cl)cc1C` [Compound 21]?
Answer: Plant response rating, Rice (rice (Oryza sativa)): 0; Plant response rating, Ducksalad [1]: 15; Plant response rating, Barnyardgrass [2]: 0; Plant response rating, Sedge, Umbrella [3]: 90

Question: Which “Plant response rating, Rice” value (rice (Oryza sativa)) does the source give for `Cc1cc(Cl)c(NS(=O)(=O)C(F)(F)F)cc1C(=O)N(C)C` [Compound 23] here?
Answer: 15

Question: And the “Plant response rating, Ducksalad” value [1]?
Answer: 90

Question: What about the “Plant response rating, Barnyardgrass” value [2] of the same molecule?
Answer: 10

Question: And the “Plant response rating, Sedge, Umbrella” value [3]?
Answer: 95

Question: For `Cc1cc(Cl)c(NS(=O)(=O)C(F)(F)F)cc1C(=O)N1CCSCC1` [Compound 26], which “Plant response rating, Rice” value (rice (Oryza sativa)) is on record?
Answer: 0

Question: And the “Plant response rating, Ducksalad” value [1]?
Answer: 0

Question: What about the “Plant response rating, Barnyardgrass” value [2] of the same molecule?
Answer: 0

Question: And the “Plant response rating, Sedge, Umbrella” value [3]?
Answer: 0

Question: What does the source list for `CCc1cc(-c2cc(N(S(=O)(=O)C(F)(F)F)S(=O)(=O)C(F)(F)F)c(C)cc2C)c(=O)n(C)n1` [Compound 28]?
Answer: Plant response rating, Rice (rice (Oryza sativa)): 0; Plant response rating, Ducksalad [1]: 0; Plant response rating, Barnyardgrass [2]: 0; Plant response rating, Sedge, Umbrella [3]: 0

Question: Which results are given for `Cc1cc(Cl)c(NS(=O)(=O)C(F)(F)F)cc1-c1cn(C)c(=O)n(C)c1=O` [Compound 29]?
Answer: Plant response rating, Rice (rice (Oryza sativa)): 15; Plant response rating, Ducksalad [1]: 0; Plant response rating, Barnyardgrass [2]: 0; Plant response rating, Sedge, Umbrella [3]: 85

Question: With `CCn1cc(-c2cc(N(S(=O)(=O)C(F)(F)F)S(=O)(=O)C(F)(F)F)c(C)cc2C)c(=O)n(C)c1=O` [Compound 30] as the molecule, how does the “Plant response rating, Rice” value (rice (Oryza sativa)) read?
Answer: 70

Question: What about the “Plant response rating, Ducksalad” value [1] of the same molecule?
Answer: 20

Question: What about the “Plant response rating, Barnyardgrass” value [2] of the same molecule?
Answer: 0

Question: And the “Plant response rating, Sedge, Umbrella” value [3]?
Answer: 35

Question: For `CCn1cc(-c2cc(NS(=O)(=O)C(F)(F)F)c(C)cc2C)c(=O)n(C)c1=O` [Compound 32], which “Plant response rating, Rice” value (rice (Oryza sativa)) is on record?
Answer: 70

Question: What about the “Plant response rating, Ducksalad” value [1] of the same molecule?
Answer: 45

Question: And the “Plant response rating, Barnyardgrass” value [2]?
Answer: 0

Question: And the “Plant response rating, Sedge, Umbrella” value [3]?
Answer: 65

Question: `COc1cc(-c2cc(N(S(=O)(=O)C(F)(F)F)S(=O)(=O)C(F)(F)F)c(C)cc2C)c(=O)n(C)n1` [Compound 35] was tested. Which “Plant response rating, Rice” value (rice (Oryza sativa)) did it give?
Answer: 0

Question: What about the “Plant response rating, Ducksalad” value [1] of the same molecule?
Answer: 0

Question: And the “Plant response rating, Barnyardgrass” value [2]?
Answer: 0

Question: What about the “Plant response rating, Sedge, Umbrella” value [3] of the same molecule?
Answer: 85

Question: How did the “Plant response rating, Rice” value (rice (Oryza sativa)) turn out when `CSc1cc(-c2cc(NS(=O)(=O)C(F)(F)F)c(C)cc2C)c(=O)n(C)n1` [Compound 36] was run?
Answer: 0

Question: What about the “Plant response rating, Ducksalad” value [1] of the same molecule?
Answer: 0

Question: What about the “Plant response rating, Barnyardgrass” value [2] of the same molecule?
Answer: 0

Question: And the “Plant response rating, Sedge, Umbrella” value [3]?
Answer: 0

Question: What does the source list for `CCn1c(=O)c(-c2cc(NS(=O)(=O)C(F)(F)F)c(C)cc2C)cn(C)c1=O` [Compound 37]?
Answer: Plant response rating, Rice (rice (Oryza sativa)): 70; Plant response rating, Ducksalad [1]: 25; Plant response rating, Barnyardgrass [2]: 65; Plant response rating, Sedge, Umbrella [3]: 45

Question: `Cc1cc(Cl)c(N(S(=O)(=O)C(F)(F)F)S(=O)(=O)C(F)(F)F)cc1-c1cn(C)c(=O)n(C)c1=O` [Compound 38] was tested. Which “Plant response rating, Rice” value (rice (Oryza sativa)) did it give?
Answer: 25

Question: And the “Plant response rating, Ducksalad” value [1]?
Answer: 70

Question: And the “Plant response rating, Barnyardgrass” value [2]?
Answer: 0

Question: And the “Plant response rating, Sedge, Umbrella” value [3]?
Answer: 75

Question: Which “Plant response rating, Rice” value (rice (Oryza sativa)) does the source give for `Cc1cc(C)c(N(S(C)(=O)=O)S(=O)(=O)C(F)(F)F)cc1-c1cc(C(C)C)nn(C)c1=O` [Compound 39] here?
Answer: 5

Question: What about the “Plant response rating, Ducksalad” value [1] of the same molecule?
Answer: 0

Question: And the “Plant response rating, Barnyardgrass” value [2]?
Answer: 0

Question: And the “Plant response rating, Sedge, Umbrella” value [3]?
Answer: 80

Question: What does the source list for `COc1cnn(-c2cc(N(S(=O)(=O)C(F)(F)F)S(=O)(=O)C(F)(F)F)c(C)cc2C)c(=O)c1OC` [Compound 40]?
Answer: Plant response rating, Rice (rice (Oryza sativa)): 0; Plant response rating, Ducksalad [1]: 0; Plant response rating, Barnyardgrass [2]: 0; Plant response rating, Sedge, Umbrella [3]: 0

Question: How did the “Plant response rating, Rice” value (rice (Oryza sativa)) turn out when `Cc1cc(C)c(-c2cc(C(C)C)nn(C)c2=O)cc1NS(=O)(=O)C(F)(F)F` [Compound 41] was run?
Answer: 5

Question: And the “Plant response rating, Ducksalad” value [1]?
Answer: 20

Question: And the “Plant response rating, Barnyardgrass” value [2]?
Answer: 0

Question: What about the “Plant response rating, Sedge, Umbrella” value [3] of the same molecule?
Answer: 75

Question: How did the “Plant response rating, Rice” value (rice (Oryza sativa)) turn out when `Cc1cc(C)c(N(S(=O)(=O)C(F)(F)F)S(=O)(=O)C(F)(F)F)cc1-c1cn(C)c(=O)n(C)c1=O` [Compound 42] was run?
Answer: 15

Question: And the “Plant response rating, Ducksalad” value [1]?
Answer: 15

Question: And the “Plant response rating, Barnyardgrass” value [2]?
Answer: 0

Question: And the “Plant response rating, Sedge, Umbrella” value [3]?
Answer: 75

Question: With `CCn1cc(-c2cc(N(S(=O)(=O)C(F)(F)F)S(=O)(=O)C(F)(F)F)c(C)cc2C)c(=O)n(CC)c1=O` [Compound 43] as the molecule, how does the “Plant response rating, Rice” value (rice (Oryza sativa)) read?
Answer: 20

Question: And the “Plant response rating, Ducksalad” value [1]?
Answer: 25

Question: What about the “Plant response rating, Barnyardgrass” value [2] of the same molecule?
Answer: 20

Question: And the “Plant response rating, Sedge, Umbrella” value [3]?
Answer: 25

Question: For `CCn1cc(-c2cc(NS(=O)(=O)C(F)(F)F)c(C)cc2C)c(=O)n(CC)c1=O` [Compound 44], which “Plant response rating, Rice” value (rice (Oryza sativa)) is on record?
Answer: 0

Question: What about the “Plant response rating, Ducksalad” value [1] of the same molecule?
Answer: 0

Question: And the “Plant response rating, Barnyardgrass” value [2]?
Answer: 0

Question: What about the “Plant response rating, Sedge, Umbrella” value [3] of the same molecule?
Answer: 0

Question: With `CCn1nc(Cl)cc(-c2cc(N(S(C)(=O)=O)S(=O)(=O)C(F)(F)F)c(C)cc2C)c1=O` [Compound 45] as the molecule, how does the “Plant response rating, Rice” value (rice (Oryza sativa)) read?
Answer: 0

Question: And the “Plant response rating, Ducksalad” value [1]?
Answer: 25

Question: What about the “Plant response rating, Barnyardgrass” value [2] of the same molecule?
Answer: 10

Question: And the “Plant response rating, Sedge, Umbrella” value [3]?
Answer: 90

Question: How did the “Plant response rating, Rice” value (rice (Oryza sativa)) turn out when `Cc1cc(C)c(N(S(C)(=O)=O)S(=O)(=O)C(F)(F)F)cc1-c1cc(Cl)nn(C)c1=O` [Compound 46] was run?
Answer: 0

Question: And the “Plant response rating, Ducksalad” value [1]?
Answer: 50

Question: What about the “Plant response rating, Barnyardgrass” value [2] of the same molecule?
Answer: 0

Question: What about the “Plant response rating, Sedge, Umbrella” value [3] of the same molecule?
Answer: 90

Question: Which “Plant response rating, Rice” value (rice (Oryza sativa)) does the source give for `Cc1cc(C)c(N(S(=O)(=O)C(F)(F)F)S(=O)(=O)C(F)(F)F)cc1-c1cc(C(C)C)nn(C)c1=O` [Compound 47] here?
Answer: 15

Question: And the “Plant response rating, Ducksalad” value [1]?
Answer: 0

Question: What about the “Plant response rating, Barnyardgrass” value [2] of the same molecule?
Answer: 0

Question: What about the “Plant response rating, Sedge, Umbrella” value [3] of the same molecule?
Answer: 80
